# Assay results as given in PubChem BioAssay AID624417 (National Center for Advancing Translational Sciences (NCATS), 2012).
# The whole screen tested about 410,000 compounds, of which about 6,400 (1.6%) were called active. Inconclusive means that the source gave no clear call. Such entries were picked first, then a sample of the others. Calls come from the whole dose curve; as a rule, active = well fitted inhibition curve with a large enough effect; inconclusive = small, poorly fitted or top-dose-only effect; inactive = no such curve, though single readings can be large or run the other way. No potency is given beside an inconclusive call; the fits are too rough.
# Target: Glucagon-like peptide 1 receptor (Homo sapiens) (UniProt P43220)
# Assay: qHTS of GLP-1 Receptor Inverse Agonists (Inhibition Mode); note: nearly all actives have a fitted effect of over 55% in size
# Conditions: HEK293 GLP-1R CRE-luciferase, luminescence, 24 h, GLP-1R form is constitutively active; series mostly up to 38.3 µM
# Description: The overall goal of this project was to develop a novel assay for discovering small molecule ligands for class B1 G protein-coupled receptors (GPCRs). Very few agonists (or inverse agonists in inhibition mode) with generally weak activity for this entire group of physiologically important receptors are known to date. To establish proof-of-principle that this critical bottleneck can be overcome with a suitable screening approach, our studies focused on the class B1 receptor for glucagon-like peptide-1 (GLP-1R), a potential therapeutic target for diabetes and neurodegenerative disease. The assay was developed using a cell-based functional readout. Toward this goal, stably transfected HEK293 cell clones were established that co-express (i) a cAMP-responsive luciferase reporter gene, and (ii) constitutively active GLP-1R that upon ligand interaction inhibit (inverse agonists) the luciferase activity. In addition, two control cell lines were developed: (i) one that express only the cAMP-responsive reporter gene to enable initial exclusion of GLP-1R independent effects of candidate probes; and (ii) one with the reported gene cloned with another constitutively active orphan receptor GPR119 to enable exclusion of GLP-1R independent inhibitor effects of candidate inverse agonists. To that end, this assay was optimized for 1536-well format and screened against the MLSMR. […] NIH Molecular Libraries Probe Production Network [MLPCN] NIH Chemical Genomics Center [NCGC] Grant: NS064851 PI Name: Martin Beinborn, Tufts Medical Center
# Six ul of cell suspension (200 cells/uL in DMEM + 10% Nu serum + 1% pen-strep) is dispensed in a white solid 1536-well plate. The plates are incubated for 12 hours at 37 deg C at 5% CO2 followed by addition of 23 nL compounds. After 24 hr incubation at 37 deg C and 5% CO2, 3 uL of luciferase assay detection reagent is added. A luminescence read is obtained on the PerkinElmer Viewlux after 12 min incubation at room temperature.
# Potency is the fitted concentration of half-maximal effect; tags give direction and shape of the fitted curve.
# Sequence of UniProt P43220 (P43220 whole entry, looked up): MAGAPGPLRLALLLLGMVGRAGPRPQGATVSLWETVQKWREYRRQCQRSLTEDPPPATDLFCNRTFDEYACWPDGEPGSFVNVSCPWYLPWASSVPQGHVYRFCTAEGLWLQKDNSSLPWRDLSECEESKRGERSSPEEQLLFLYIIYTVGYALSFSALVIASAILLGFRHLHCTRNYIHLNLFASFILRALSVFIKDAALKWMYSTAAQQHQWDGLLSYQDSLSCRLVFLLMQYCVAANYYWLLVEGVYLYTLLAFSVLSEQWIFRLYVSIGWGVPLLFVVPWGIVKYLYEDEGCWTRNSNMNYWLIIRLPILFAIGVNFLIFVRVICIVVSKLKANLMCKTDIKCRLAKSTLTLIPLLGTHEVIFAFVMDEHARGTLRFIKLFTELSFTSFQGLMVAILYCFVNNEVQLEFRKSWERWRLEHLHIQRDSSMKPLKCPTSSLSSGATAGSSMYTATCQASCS
row,Compound,Potency
1,O=C(Nc1ccccc1)Nc1ccc(-n2ccc(C(F)(F)F)n2)cc1,active: 7.08 µM
2,CC(CCc1ccccn1)(CCc1ccccn1)C(=O)c1ccccc1,"inconclusive [inhibitor, partial curve, poor fit]"
3,COc1ccccc1NC(=O)c1cccc2c(Br)cccc12,"inconclusive [inhibitor, single point]"
4,COc1cc(C(C[N+](=O)[O-])c2c(C)[nH]c3ccccc23)cc(OC)c1OC (configuration not stated),"inconclusive [inhibitor, single point]"
5,COc1ccc(Cc2nc(C(=O)Nc3ccc(Cl)cc3)cs2)cc1,"inconclusive [inhibitor, single point]"
6,CC(C)CC(NC(=O)C1CCC(C)CC1)C(=O)N1CCN(c2ccccn2)CC1 (configuration not stated),"inconclusive [inhibitor, single point]"
7,O=[N+]([O-])c1cccc(S(=O)(=O)Nc2nc3ccccc3nc2Nc2cccc(S(=O)(=O)N3CCCCC3)c2)c1,"inconclusive [inhibitor, full curve, poor fit]"
8,CCN1CCSc2ccc(C(=O)NCc3ccc(F)cc3)cc21,"inconclusive [inhibitor, single point]"
9,COc1ccc(C(CNC(=O)c2cccc(NC(=O)c3cccs3)c2)N2CCCC2)cc1 (configuration not stated),"inconclusive [inhibitor, single point]"
10,CC(C(=O)NC1CCCc2ccccc21)N1CCN(c2ccc(F)cc2)CC1 (configuration not stated),"inconclusive [inhibitor, partial curve]"
11,CN(C)C(=O)CSc1nnc(NC(=O)CCc2ccccc2)s1,"inconclusive [inhibitor, single point]"
12,CCN(CC)C(=O)c1sc2c(c1C)c(=O)n(CCc1ccccc1)c(=O)n2Cc1ccc(C)cc1,"inconclusive [inhibitor, partial curve, poor fit]"
13,COc1cccc(Nc2nc(-c3cccc(N4C(=O)c5ccccc5C4=O)c3)cs2)c1,"inconclusive [inhibitor, single point]"
14,CN(CCCC(=O)Nc1ccncc1)S(=O)(=O)c1ccc(Cl)cc1,"inconclusive [inhibitor, partial curve, poor fit]"
15,COc1cc(NS(=O)(=O)c2cccc3nsnc23)cc(OC)c1,inactive
16,Cc1nc(N2CCC(C)CC2)c2c(C)c(C(=O)Nc3cccc(C(F)(F)F)c3)sc2n1,"inconclusive [inhibitor, full curve, poor fit]"
17,O=S(=O)(Nc1cccc(S(=O)(=O)N2CCCCCC2)c1)c1ccccc1,"inconclusive [inhibitor, full curve, poor fit]"
